Source: PubChem BioAssay AID2101 (National Center for Advancing Translational Sciences (NCATS), 2009)
In all, about 330,000 compounds went through this assay and about 300 (0.091%) were called active. This list was built around the results that the source calls inconclusive (neither active nor inactive); the mix of calls is not that of the screen. The call rests on the fitted dose curve; in most records, active means well fitted inhibition curve with a large enough effect; inconclusive means small, poorly fitted or top-dose-only effect, or effect the other way, or another doubt; inactive means no such curve, though single readings can be large or run the other way. No potency is given beside an inconclusive call; the fits are too rough.

Target: Lysosomal acid glucosylceramidase (Homo sapiens) (UniProt P04062)
Test: qHTS Assay for Inhibitors and Activators of N370S glucocerebrosidase as a Potential Chaperone Treatment of Gaucher Disease
Conditions: N370S GC spleen homogenate, 4MU-glucoside fluorescence; series mostly up to 59.4 µM
Potency means the concentration at half of the fitted maximal effect.

Structure (SMILES)	Potency
Cc1c(S(=O)(=O)N(C)C2CCCCC2)c(=O)n(C)c(=O)n1C	inactive
COCCn1c(=O)[nH]c(=O)c2c(C(F)(F)F)cc(-c3cccs3)nc21	inconclusive [activator, partial curve]
CC(C)c1ccc(NC(=O)CSc2nc3ccsc3c(=O)n2CCC(=O)O)cc1	inconclusive [activator, partial curve]
CCCCCCCCCCCCCCCC[N+](C)(C)CC	inconclusive [inhibitor, partial curve]
CCCCn1c2c(c(=O)n(C)c1=O)C(c1ccc(OC)cc1)N1CCCCCC1=N2 (stereo not given)	inconclusive [activator, single point]
COc1ccc(CNCCc2ccc(Cl)cc2)cc1OCc1ccccc1	inconclusive [inhibitor, single point]
CN1CCN(Cc2nc3ccccc3c(=O)n2Cc2nc(-c3ccccc3F)cs2)CC1	inconclusive [inhibitor, single point]
O=C(CNC(=O)c1ccc(Cl)cc1Cl)OCC(=O)N1CCN(c2ccccc2)CC1	inconclusive [inhibitor, partial curve, poor fit]
O=C(Nc1cccc(C(=O)O)c1)Nc1ccccc1Cl	inconclusive [inhibitor, partial curve]
CCC(CO)[n+]1c(C)cc(/C=C2\Sc3ccccc3N2Cc2ccccc2)cc1C (stereo not given)	inconclusive [inhibitor, single point]
CN(CCC#N)C(=O)COC(=O)c1cc(Cl)cc(Cl)c1N	inconclusive [activator, partial curve, poor fit]
Cc1ccc(S(=O)(=O)N(C)Cc2cc3ccccc3[nH]c2=O)cc1	inconclusive [activator, partial curve]
CCN(CC)c1ccc2c(Cl)c(Br)c(=O)oc2c1	inconclusive [activator, single point]
Cc1ccc(Cn2ccnc2C(=O)Nc2ccccc2)cc1	inactive
Cc1cccc(C2=NN(c3ccccc3)[C@H](CO)[C@H]2c2ccc(F)cc2)c1	inconclusive [activator, partial curve]
O=C(CN1CCOCC1)Nc1nc2cc([N+](=O)[O-])ccc2s1	inactive
C/C(=N\NC(=O)c1ccn(C)n1)c1cccc(NC(=O)c2ccncc2)c1	inconclusive [inhibitor, partial curve, poor fit]
CC(=Nc1ccc(Br)cc1)c1sc2ccccc2c1O	inactive
CCOCCCNc1nc2ccccc2[nH]1	inactive
Cc1ccc(S(=O)(=O)Nc2ccc(-c3cn4ccc(C)cc4n3)cc2)cc1	inconclusive [inhibitor, partial curve]
O=C(c1cc(-c2ccco2)nc2ccccc12)N(Cc1nnc(-c2ccc(Cl)cc2)o1)C1CC1	inconclusive [activator, partial curve]
C/C(=N\NC(=O)c1cc(-c2ccc(O)cc2)nc2ccccc12)c1cccnc1	inconclusive [inhibitor, single point]

Structure (SMILES)	Potency
CCc1ccc(NC(=O)CSCc2nc(N)nc(Nc3ccccc3CC)n2)cc1	inconclusive [activator, partial curve]
COc1ccccc1N1CCN(C(=O)c2c(-c3ccccc3)noc2C)CC1	inconclusive [activator, single point]
Cc1cc(C)n(CC(=O)NNC(=O)CCCOc2ccc(Cl)c(C)c2)n1	inconclusive [inhibitor, partial curve]
COc1ccccc1OCC(=O)N(Cc1nc(-c2ccc(Cl)cc2)no1)C(C)C	inconclusive [activator, partial curve]
Cc1cc2ccc(=O)oc2cc1OC[C@@H](O)C(C)(C)O	inconclusive [activator, partial curve]
Cc1ccc(-c2nnc(-c3ccccc3)c(-c3ccccc3)n2)cc1	inconclusive [activator, single point]
CCOc1ccc(NC(=O)c2ccc(CC)s2)c([N+](=O)[O-])c1	inactive
CC(C)C(=O)c1cc2c(cc1NC(=O)c1ccccc1)OCCO2	inconclusive [activator, single point]
O=C(NCCc1ccccc1)c1ccc2c(=O)[nH]c3c(C(=O)NCC4CCCO4)sc(=S)n3c2c1 (stereo not given)	inactive
O=C(NNC(=O)c1ccc([N+](=O)[O-])o1)c1ccccc1	inconclusive [inhibitor, single point]
Cc1c(C(=S)Nc2ccccc2)cnn1-c1ccccc1	inactive
CC1=C(OC(=O)c2ccccc2)C(C)(C)C(c2ccc(Br)cc2)OC1=O (stereo not given)	inconclusive [activator, full curve, poor fit]
COc1ccccc1-c1ccc(=O)n(CC(=O)NCc2ccco2)n1	inconclusive [activator, full curve]
COc1ccc2[nH]cc(CCNc3nc(-c4ccoc4)nc4ccccc34)c2c1	active: 15.8 µM
CC1CC(NC(=O)c2cnc3n(c2=O)CCS3)CC(C)(C)C1 (stereo not given)	inconclusive [activator, partial curve]
O=C(Nc1ccc2oc(-c3cccc4ccccc34)nc2c1)c1ncn[nH]1	inactive
Cc1c(OC(C)C(=O)NCC(O)c2ccccc2)ccc2c3c(c(=O)oc12)CCC3 (stereo not given)	inconclusive [activator, partial curve]
COc1ccc(NC(=O)c2ccc(-c3ccc(-c4noc(C)n4)cc3C)cc2)cc1OCCN(C)C	inconclusive [inhibitor, single point]
Cc1ccc(NC(=O)OCCN2CCN(Cc3ccccc3)CCC2=O)cc1	inconclusive [inhibitor, partial curve]
Cc1ccc(SCC(=O)NCCC2=CCCCC2)cc1	inconclusive [activator, partial curve, poor fit]
COc1ccc(-c2cn3cccnc3n2)cc1F	inconclusive [activator, partial curve]
O=C(CSc1ccc2nnc(CCNC(=O)c3ccccc3)n2n1)Nc1ccccc1	inconclusive [activator, single point]

Structure (SMILES)	Potency
O=C1C(Cl)=C(N2CCCCCC2)C(=O)N1c1ccc(Cl)cc1	inconclusive [activator, single point]
N#Cc1cc2c(=O)n3ccccc3nc2n(-c2ccc(Cl)cc2)c1=O	inconclusive [activator, single point]
CCCCc1ccc(NC(=S)N2CCN(C)CC2)cc1	inconclusive [inhibitor, partial curve]
CCCCn1c(=O)[nH]c(=O)c2c1nc(-c1ccccc1F)n2Cc1ccccc1	inconclusive [activator, partial curve]
CC1Cc2ccccc2N1CC(=O)NC(=O)NC1CCCCC1 (stereo not given)	inconclusive [activator, partial curve, poor fit]
COc1ccc(CNS(=O)(=O)c2ccc3c(c2)NC(=O)C(C)S3)cc1 (stereo not given)	inconclusive [inhibitor, partial curve]
O=C(Nc1ccccc1C(=O)Nc1nnc(C(F)(F)F)s1)c1ccccc1	inconclusive [activator, full curve, poor fit]
CCCc1cc(NCc2ccccn2)n2c(nc3ccccc32)c1C#N	inconclusive [activator, single point]
O=C(O)c1cnn(-c2nc(-c3ccc(Br)cc3)cs2)c1C(F)(F)F	inconclusive [activator, single point]
Cc1ccccc1C(=O)NN(C)c1nc2ccccc2nc1C(F)(F)F	inconclusive [inhibitor, partial curve]
N#Cc1cn(CCOc2ccccc2F)c2ccccc12	inconclusive [activator, partial curve]
[2H]c1c([2H])c([2H])c(C(=O)c2sc(N3CCCCCC3)nc2-c2ccccc2)c([2H])c1[2H]	inconclusive [activator, single point]
CCCCn1c(C23CC4CC(CC(C4)C2)C3)n[nH]c1=S	inconclusive [activator, single point]
Cc1ccc(Cn2ccc(NC(=O)c3noc4c3CCCC4)n2)cc1	inactive
CCOC(=O)c1cnn(-c2cc(C)c3ccccc3n2)c1N	inactive
COc1ccc(-c2nn(C)c(=O)c3ccccc23)cc1NC(=O)Cn1nc(-c2ccccc2)c2ccccc2c1=O	inconclusive [inhibitor, full curve]
Cc1ccc(Cl)cc1N1CCN(C(=O)CSc2nnc3n2C(C)(C)Cc2ccccc2-3)CC1	inconclusive [activator, partial curve]
CCOC(=O)c1cnc2sc3c(n2c1=O)CCCC3	inconclusive [activator, single point]
Cc1ccc(S(=O)(=O)N2CCOCC2)cc1NC(=O)COc1ccc2c(C)cc(=O)oc2c1	inconclusive [activator, single point]
CC(=O)c1cccc(N2C(=NC(=O)C3CCCCC3)SC3CS(=O)(=O)CC32)c1 (stereo not given)	inconclusive [activator, full curve, poor fit]
CC(=O)c1c(C)[nH]c(C(=O)OCc2cccc(C)c2)c1C	inactive
